The other results are listed elsewhere or left out.
B1: chr11:105132459:105132460:+_ENSMUSG00000020694_ENSMUST00000015107|mus_hu|motif|central (ssRNA)
RNA: GGGAGUUCUACAGUCCGACGAUCGAUCUUCGAAAGACCAAAAUCUGUAAUUUUUAUCUCUCCACACGCUGUACCAUUUACGGAAAGAAUAUUACCUGGUUUGAGGUCAUAGUGUAUGAUGGGAGGUUUUAUUUCAUUUAAGUACAACAGAGGAUUGAGCAUCA
B2: chr2:202488911:202488912:-_ENSG00000155755_ENST00000286196|hu_mus|hu_hu_hu_mus_False|28_108 (ssRNA)
RNA: GGGAGUUCUACAGUCCGACGAUCAUUUAACAUUUUUUCAUAAUCUCCAGUAGCAUUUCAGCAUUAUGUAACAAAAGCUCAAUUGUAAAUACAUGUAUCUUAUAAAAAUAAAAAUACAAACACGAGUGGGGAGCGCAGGCGCCACAACAGAGGAUUGAGCAUCA
B3: chr6:29525140:29525141:-_ENSMUSG00000012535_ENSMUST00000012679|mus_mus|motif|central (ssRNA)
RNA: GGGAGUUCUACAGUCCGACGAUCAUUGGUUUUGUAUAAAUGUUCUCCUAGUCGGUACCAAAAGUUAAAGGAAAUUUCGGCGGCCUCAUACUGAGGGUGGCCUGCACAGAUAAGAAGCAAUUCCAAAGUUCGAAGAUCUCCCAGCAACAGAGGAUUGAGCAUCA
B4: chr18:56819859:56819860:+_ENSG00000166562_ENST00000588875|hu_mus|hu_hu_hu_mus_True|78_108 (ssRNA)
RNA: GGGAGUUCUACAGUCCGACGAUCAACUUUGAUUACUCUGUGAACUAUCGGAAUGUCUCGUCCUUCAACCUUAAAAACAACUAUUUCACCAGCUCUGAUGGGGUCCUCCCGGAAAUUCGUGAGGAACAGCAGAUCUCCUCUGUGCAACAGAGGAUUGAGCAUCA
B5: chrX:21990627:21990628:+_ENSG00000102172_ENST00000404933|hu_mus|FALSE|FALSE (ssRNA)
RNA: GGGAGUUCUACAGUCCGACGAUCCACCCGCCCAGUACUGUCUUGACUCAAUUCUUUCAUUUUUUCUUCUAUUUUGUUCAAAAGGCUGUCAGUUUCUUGUUUGCCUUGCACAUCACUGUCGUAACUCUGAAGGUCCAGCAACACCAACAGAGGAUUGAGCAUCA
B6: chr14:78183846:78183847:+_ENSG00000119705_ENST00000557342|hu_hu|hu_hu_hu_mus_False|18_68 (ssRNA)
RNA: GGGAGUUCUACAGUCCGACGAUCUCUCAGAAAUCUUUCUUCAUCAGAUGUUUGAGCUCCGUGCAAAAGUUUUGGCCUUUGAGCUUGAACGUGGAUCUAUGGGAGGGAAAGCACUGUAUUUUCCUGUAAUUUUUUUUUUAAAGACAACAGAGGAUUGAGCAUCA
B7: chr2:104630212:104630213:-_ENSMUSG00000074994_ENSMUST00000117237|mus_mus|motif|central (ssRNA)
RNA: GGGAGUUCUACAGUCCGACGAUCUGUAGUGUUAAAAGAUGAAUCUUGAAGCACCAAAGGUGAGGUGGUCGCAAAGUUUCGGUUGCGGAAGGUAGAUGAAUGCUGAUAGGCAGACAAAGUUGGUGGUGGAAGUGUCCCAGUGGUCAACAGAGGAUUGAGCAUCA
B8: chr6:41757443:41757444:+_ENSG00000214736_ENST00000398881|hu_mus|hu_hu_hu_mus_False|1_98 (ssRNA)
RNA: GGGAGUUCUACAGUCCGACGAUCGAACCGUGCAGAGACCAGAGAAUAGCCGACACUGGGGGAUGGGGGGGCAGUGGGGGGGGGUUCAGGCAAGGAGAGGGAGUCAACUUCAGCUGCCACUCAGGUAGGAUCUUGUGGGGCACACAACAGAGGAUUGAGCAUCA
B9: chr5:24093644:24093645:+_ENSMUSG00000038181_ENSMUST00000088295|mus_mus|motif|central (ssRNA)
RNA: GGGAGUUCUACAGUCCGACGAUCUUCCCAACCCUAUGUCUGGUCUUCAGUGGCCAUGGUGCUGAUACCCUCAGUAAAAUACGGAUGUCUAUGUGAGCAAUGCCACUCCCUACGGGGAUUGCAGUCUGUAGUCCAGGAAAAAGACAACAGAGGAUUGAGCAUCA
B10: chr2:47387770:47387771:-_ENSG00000143933_ENST00000272298|hu_mus|FALSE|FALSE (ssRNA)
RNA: GGGAGUUCUACAGUCCGACGAUCAAGGUUUAAGGACAAUGACAGUAAGAUAAGGGAAGAAAACAUGGAGGAAUGAAGUCCUAAUUACUAUACAUGCAUAUUUUUUGACAGUAGGGGGGGGGAACCUUUUACAGAUAAGUUACACAACAGAGGAUUGAGCAUCA
B11: chr11:100882373:100882374:+_ENSMUSG00000019302_ENSMUST00000044721|mus_mus|mus_mus_mus_hu_True|48_108 (ssRNA)
RNA: GGGAGUUCUACAGUCCGACGAUCUUCCUGGUUAGUGUUGAUUUCCUUCAGUUCAUUUUCAAUCUUCUCAAAAUUGGCCUCUAAGUCGAUCAUGUCCCGGGGGAAGGGAACCUCUGGGUUUUCACCGGUGUCCAUAAUCGGAAUCAACAGAGGAUUGAGCAUCA
B12: chrX:71549762:71549763:+_ENSMUSG00000019087_ENSMUST00000019231|mus_mus|mus_mus_mus_hu_False|68_78 (ssRNA)
RNA: GGGAGUUCUACAGUCCGACGAUCAAACCCGUGUACUUCUUAUUGUUAGCACAACAUUCCCCCCCAAAAAACAUAACAGCCAAGCAGGACAGACAGUUAAGUAGUACUUCCACACUCCCAAACUCAGGGAGCCCUAUAACCUUACAACAGAGGAUUGAGCAUCA
B13: chr11:87793471:87793472:-_ENSMUSG00000020483_ENSMUST00000020775|mus_mus|mus_mus_mus_hu_False|68_68 (ssRNA)
RNA: GGGAGUUCUACAGUCCGACGAUCUGGACUUGAAAAUAAAAGAAUAAGCUGGAUCCCCCACCCCCCCACAGUGUCAACCCUACACGAGAGUUUUGAAGGCGACUCAUGAAAAUCAGCAGCUCAAACGGCAAUGACCACCCCACCCAACAGAGGAUUGAGCAUCA
B14: chr13:28239862:28239863:+_ENSG00000186184_ENST00000399697|hu_mus|FALSE|FALSE (ssRNA)
RNA: GGGAGUUCUACAGUCCGACGAUCCUCUUUAUGGGAGGGCAGUGUGUUCUUAAUUGUGUUAAUUAGGAAUCUUUUAUUUGUACCAGCAAGAGGACACUUCAUCCAGCCCAUCGGCCCCAUUGUCUCCGCUCUGGUUUUCCCACGCAACAGAGGAUUGAGCAUCA
B15: chr1:235599081:235599082:+_ENSG00000116957_ENST00000366601|hu_mus|FALSE|FALSE (ssRNA)
RNA: GGGAGUUCUACAGUCCGACGAUCAGAUCUGCUAUAAGGCUCAGCUGGCUUUCAUCAAUUGAUGGGUUGGAGGAAAGGUCUAGUAACCUCAUUUUCUGCAGGACAUUCACUGGCCUUUCAGAAAUGGAAAUAUUGUUAGACUUGCAACAGAGGAUUGAGCAUCA
B16: chr4:115894766:115894767:+_ENSMUSG00000028698_ENSMUST00000030464|mus_hu|mus_mus_mus_hu_True|48_78 (ssRNA)
RNA: GGGAGUUCUACAGUCCGACGAUCUUCCACACGGAAAUGUACUUCGGGUUUUCCAACGCCAGUACAAAGUCCGGCCAAACUACCCGAUGAGGACAAGCCCCCUCUCUCCUACAGAACACAACAAAAUGCCCCCGAACUUUCAAGCAACAGAGGAUUGAGCAUCA
B17: chr7:54825262:54825263:-_ENSG00000132432_ENST00000352861|hu_hu|hu_hu_hu_mus_False|1_58 (ssRNA)
RNA: GGGAGUUCUACAGUCCGACGAUCCUGCCGGCUGGGCUCCACAAACUGCAUUACCUGAUCCAUGUUUGUUGGAUGGCACACCUAAAACGUAGAGACACGUAGCUCAGGAGAGAACCGAGCCCAACGGAACCGGAAGCGGAAUCCCAACAGAGGAUUGAGCAUCA
B18: 97800885_97814381_1043_CDS_ENSG00000164715_ENST00000297293|human|control|control (ssRNA)
RNA: GGGAGUUCUACAGUCCGACGAUCAUUCCGCAGGGCUAAAUCACUGUGCAGGAAGUGCAGCUUGUGCAUGGCGGCCAGCCCCGCGGCGACCUCGCACGCCAUCCUCUGCAGCAGCAUGGUCUGUGAGUCCCCCCGCAUGUGCUCCAACAGAGGAUUGAGCAUCA
B19: chr19:40827925:40827926:-_ENSG00000160392_ENST00000392035|hu_mus|FALSE|FALSE (ssRNA)
RNA: GGGAGUUCUACAGUCCGACGAUCGCUGCUCCCCCGGGGCCCUACCAGAGUCCUUUUAAUGGCGAACUUGACCUCAGCUGAGGACUUACUCUUGGUGCUUGUGACCUGGCUGUCCUGUGCCUCGGACACAACGGCAGCCUUGCCCAACAGAGGAUUGAGCAUCA
B20: chr4:140556289:140556290:+_ENSMUSG00000036622_ENSMUST00000037055|mus_mus|mus_mus_mus_hu_False|68_78 (ssRNA)
RNA: GGGAGUUCUACAGUCCGACGAUCGAUGGAGCUCACCAGGCCCCCUUUUGCCGUGCAGAACCCUGUCCGAGUCACCACUGCCAGGACGUGCGGUCCCACAUAGGCCCGGGCCUGCAAGAUGAGGGUCCCGCAGAAGAGUGUGUGCAACAGAGGAUUGAGCAUCA
B21: chr7:71034301:71034302:-_ENSMUSG00000052040_ENSMUST00000063694|mus_hu|FALSE|FALSE (ssRNA)
RNA: GGGAGUUCUACAGUCCGACGAUCGGACUUUGGAAUAAAAUUCCUGAACCUGGAAUGUGAAUUCCUGAGACAUAAAAUGUAUUCAGAGUGUGGCUUUCUCUGCCUCACACGAAAACAACUUUGGGAGGGACCUCACUUUGGAACCAACAGAGGAUUGAGCAUCA
B22: chr10:127182121:127182122:+_ENSMUSG00000044617_ENSMUST00000054287|mus_mus|FALSE|FALSE (ssRNA)
RNA: GGGAGUUCUACAGUCCGACGAUCAAAGAGAUGCUGGGUAGUAUGUAUACCAAACAAAACAAAAAAUAAUAAUAAAAUAAAUAUUAAUGUCUAGAAAGGCUUUGUGAGUUAAUUAAAACCACUUGCUUAUGAAACAGCCCAGAGCAACAGAGGAUUGAGCAUCA

Each binder was assayed against T1, UNK ZnF1-3 (human, UniProt Q9C0B0 31-174) (assay: nsRBNS (natural sequence RNA bind-n-seq); RBNS binding buffer (assumed for nsRBNS): 25 mM Tris pH 7.5, 150 mM KCl, 3 mM MgCl2, 0.01% Triton X-100, 500 ug/ml BSA, 20 U/ml SUPERase-In, 4 C; UNK is unkempt and MSI1 is Musashi-1; names of the RNAs are library labels; protein concentration not given here; high values mean tight binding).
T1 sequence: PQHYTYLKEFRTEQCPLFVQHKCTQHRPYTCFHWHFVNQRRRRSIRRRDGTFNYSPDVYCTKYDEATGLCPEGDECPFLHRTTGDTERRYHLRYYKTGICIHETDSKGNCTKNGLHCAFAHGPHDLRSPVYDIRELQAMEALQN

| Binder | binding signal [enrichment R] |
| --- | --- |
| B1 | 0.993 |
| B2 | 0.979 |
| B3 | 0.811 |
| B4 | 0.73 |
| B5 | 0.728 |
| B6 | 1.12 |
| B7 | 1.57 |
| B8 | 2.73 |
| B9 | 0.964 |
| B10 | 2.35 |
| B11 | 0.74 |
| B12 | 1.72 |
| B13 | 1.84 |
| B14 | 0.79 |
| B15 | 1.36 |
| B16 | 0.969 |
| B17 | 0.966 |
| B18 | 0.557 |
| B19 | 0.713 |
| B20 | 1.3 |
| B21 | 0.938 |
| B22 | 1.71 |

From paper PMC12136788
